Laboratory results taken from PubChem BioAssay AID1460 (National Center for Advancing Translational Sciences (NCATS), 2008).
In all, about 270,000 compounds went through this assay and about 5,800 (2.1%) were called active. The shares of active, inactive and inconclusive entries below differ from those in the screen. Calls follow the shape of the dose curve; as a rule, active = well fitted inhibition curve with a large enough effect; inconclusive = small, poorly fitted or top-dose-only effect; inactive = flat fitted curve, though single readings scatter. Where the call is inconclusive, the potency comes from a doubtful curve fit.
% is scaled to controls: 0 for no effect and ±100 for the full control effect; potency is read from the fitted curve at half-maximal effect; tags tell the direction and shape of the fitted curve.
Also: nearly all actives have a fitted effect of over 55% in size.

The compounds below were run against Microtubule-associated protein tau (Homo sapiens) (UniProt P10636) (assay: qHTS for Inhibitors of Tau Fibril Formation, Thioflavin T Binding). Settings: recombinant tau K18 P301L (four-repeat tau fragment), heparin-induced fibrillization, ThT fluorescence; series mostly up to 57.4 µM.
Sequence of UniProt P10636 (P10636 whole entry, looked up, the tested form may be a part): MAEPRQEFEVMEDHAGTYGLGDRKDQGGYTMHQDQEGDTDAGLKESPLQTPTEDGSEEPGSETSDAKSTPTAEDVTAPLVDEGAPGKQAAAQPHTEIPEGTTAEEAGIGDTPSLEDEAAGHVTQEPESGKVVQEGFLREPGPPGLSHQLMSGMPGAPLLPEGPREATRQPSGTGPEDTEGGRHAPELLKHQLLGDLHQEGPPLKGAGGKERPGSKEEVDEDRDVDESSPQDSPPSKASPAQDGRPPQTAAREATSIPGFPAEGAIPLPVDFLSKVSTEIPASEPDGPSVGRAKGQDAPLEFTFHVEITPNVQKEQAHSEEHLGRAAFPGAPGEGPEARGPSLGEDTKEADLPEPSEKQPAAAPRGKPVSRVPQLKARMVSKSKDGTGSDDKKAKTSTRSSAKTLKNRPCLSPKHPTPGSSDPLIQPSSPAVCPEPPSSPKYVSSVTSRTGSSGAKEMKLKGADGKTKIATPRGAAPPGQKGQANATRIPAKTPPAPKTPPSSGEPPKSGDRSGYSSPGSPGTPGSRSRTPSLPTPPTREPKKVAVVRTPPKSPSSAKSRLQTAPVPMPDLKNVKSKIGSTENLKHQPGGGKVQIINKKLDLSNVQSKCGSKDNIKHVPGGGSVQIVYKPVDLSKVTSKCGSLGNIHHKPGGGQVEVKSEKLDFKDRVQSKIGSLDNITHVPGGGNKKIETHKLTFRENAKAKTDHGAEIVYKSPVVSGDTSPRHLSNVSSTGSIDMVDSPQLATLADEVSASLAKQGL
Procedure, shortened: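 In this qHTS, human K18 P301L tau is incubated with compound and heparin for 6 hr at 37 C, and Thioflavin T fluorescence then reports fibril load.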
In the case of `COc1ccc(CNC(=O)CSc2nn3c(=O)c(C(C)(C)C)nnc3s2)cc1OC`, the Potency is reported as “inactive”. With `S=C(Nc1ccc(Oc2ccccc2)cc1)N(CCCN1CCOCC1)Cc1ccccn1` the Potency was inconclusive: 44.7 µM [inhibitor, single point]. With `CC(=O)/C(N=Nc1cc2c(c([N+](=O)[O-])c1C)C(C)(C)CC2(C)C)=C(\C)O` the Potency was inconclusive: 10 µM [inhibitor, partial curve]. `O=C(Nc1cc(S(=O)(=O)N2CCOCC2)ccc1Cl)c1cc(=O)c2ccccc2o1` was tested, and the Potency was “inactive”. `COC(=O)/N=C/c1c(NCc2ccccc2)nc2c(C)cccn2c1=O` was tested, and the Potency was inconclusive: 28.2 µM [inhibitor, single point]. With `CC(=O)Nc1cccc(Nc2nc(-c3ccccc3F)nc3ccccc23)c1` the Potency was inconclusive: 39.8 µM [activator, single point]. In the case of `CC(C)=NOCc1ccc(-c2cc(-c3ccccc3)no2)cc1`, the activity, negative = inhibition is reported as inactive: -5.43% [at 11.5 µM]. `O=C(OCn1nnc2ccccc2c1=O)c1ccc(N2CCOCC2)c([N+](=O)[O-])c1` was tested, and the Potency was inconclusive: 31.6 µM [inhibitor, single point]. In the case of `CC(=O)N[C@@H](C=O)[C@@H](O)[C@H](O)[C@H](O)CO`, the Potency is reported as “inactive”. For `CCCCN(C)c1nnc(NC(=O)Nc2cccc(C(C)=O)c2)s1`, the Potency was inconclusive: 15.8 µM [inhibitor, partial curve, poor fit]. For `Cc1cc(C)cc(Nc2cc(-c3ccccc3)nc(C)n2)c1`, the Potency was inconclusive: 15.8 µM [inhibitor, partial curve, poor fit]. For `O=C(CN(c1ccc2c(c1)OCCO2)S(=O)(=O)c1ccccc1)Nc1ccc2c(c1)OCO2`, the Potency was inconclusive: 20 µM [inhibitor, partial curve, poor fit]. In the case of `COc1ccc(NC(=O)Cn2c(=O)n(-c3ccccc3)c(=O)c3c4c(sc32)CCCC4)cc1`, the Potency is reported as inconclusive: 39.8 µM [activator, single point]. In the case of `CCCCC/C=C\C/C=C\C/C=C\C/C=C\CCCC(=O)C(F)(F)F`, the Potency is reported as inconclusive: 39.8 µM [inhibitor, single point]. `Cc1cc(NC(=O)c2cc(-c3ccco3)on2)n(-c2ccccc2)n1` was tested, and the Potency was “inactive”. In the case of `COC(=O)COc1ccc(NC(=O)C2CCCO2)cc1` (stereo unspecified), the Potency is reported as “inactive”. For `O=C1CC(SCc2nc3ccccc3[nH]2)C(=O)N1c1cccc(F)c1` (stereo unspecified), the Potency was inconclusive: 31.6 µM [inhibitor, partial curve]. For `CC(C)(C)C1=Nn2c(nnc2-c2n[nH]c3c2CCC3)SC1`, the Potency was “inactive”. For `COc1ccc(NC(=O)c2ccccc2SC)cc1`, the Potency was “inactive”. With `Cc1ccc(NC(=O)CCn2cccn2)cc1Cl` the Potency was “inactive”. For `CCOc1ccc(CCNC(=O)CN2C(=O)COc3ccc(S(=O)(=O)N4CCC(C)CC4)cc32)cc1`, the Potency was “inactive”. For `CCCOc1ccc(N2CC(C(=O)Nc3cccc(Cl)c3Cl)CC2=O)cc1` (stereo unspecified), the Potency was inconclusive: 2.24 µM [inhibitor, full curve, poor fit]. In the case of `CC(C)CN1C(=O)c2ccc(C(=O)Nc3nccs3)cc2C1=O`, the Potency is reported as “inactive”. `O=S(=O)(c1ccccc1)c1nnn2c1nc(NCc1cccs1)c1sccc12` was tested, and the Potency was inconclusive: 39.8 µM [activator, single point]. In the case of `C=CCOC(=O)C1=C(C)OC(N)=C(C#N)C1c1c(C)nn(-c2ccccc2)c1Cl` (stereo unspecified), the Potency is reported as inconclusive: 15.8 µM [inhibitor, partial curve]. For `O=C(/C=C/Nc1ccc(Oc2ccccc2)cc1)c1ccco1`, the Potency was inconclusive: 7.94 µM [inhibitor, partial curve]. With `CC1=NN(c2ccc(Cl)cc2)C(=O)/C1=C\c1cccn1-c1ccc(S(N)(=O)=O)cc1` the Potency was active: 7.08 µM. For `CC(C)(C)C(=O)/C=c1\s/c(=C\c2ccc(-c3ccc([N+](=O)[O-])cc3)o2)c(=O)n1CC(=O)NC(N)=O`, the Potency was inconclusive: 31.6 µM [inhibitor, single point]. With `COc1c(OC(C)=O)ccc(/C=C/c2ccc3ccccc3n2)c1[N+](=O)[O-]` the Potency was active: 10 µM. With `COc1cc(/C=N/NC(=O)c2cccnc2)ccc1OS(=O)(=O)c1ccc(F)cc1` the Potency was “inactive”. `CC(=O)NCCNC(=O)CCCc1nnc2n(C)c(=O)c3sccc3n12` was tested, and the Potency was “inactive”. `COc1cccc(-c2noc(-c3ccc(Br)o3)n2)c1` was tested, and the Potency was inconclusive: 14.1 µM [inhibitor, partial curve]. In the case of `O=C(O)CCCNS(=O)(=O)/C=C/c1ccccc1`, the Potency is reported as “inactive”. `COc1ccc(NC2=CC(=O)N(C)C2=O)cc1` was tested, and the Potency was inconclusive: 20 µM [inhibitor, partial curve]. In the case of `Cc1cccc(Cn2c(O)c(N=NC(=S)Nc3ccccc3F)c3ccccc32)c1`, the Potency is reported as “inactive”. In the case of `COCc1cc(CN2CCCC2)c(O)c2ncccc12`, the Potency is reported as inconclusive: 31.6 µM [inhibitor, partial curve]. In the case of `CCOC(=O)C1=C(CC)OC(N)=C(C#N)C1c1ccc(NC(C)=O)cc1` (stereo unspecified), the Potency is reported as inconclusive: 35.5 µM [inhibitor, single point]. For `Cc1ccccc1-c1ncnn1-c1sc2c(c1C#N)CCCCC2`, the Potency was inconclusive: 28.2 µM [inhibitor, partial curve, poor fit]. In the case of `COc1ccc(-c2cc3nc(C)c(CCC(=O)N4CCN(c5cccc(Cl)c5)CC4)c(C)n3n2)c(OC)c1`, the Potency is reported as inconclusive: 1.26 µM [inhibitor, full curve, poor fit]. With `CCn1c(C)cc2c(c1=O)C(c1ccncc1)C(C#N)=C(N)O2` (stereo unspecified) the Potency was “inactive”. For `CN(C(=O)/C=C/c1ccco1)c1ccccc1C(=O)O`, the Potency was inconclusive: 31.6 µM [inhibitor, partial curve, poor fit]. `Cc1[nH]n(-c2ccccc2)c(=O)c1/C=C1\C=NN=C1c1ccccc1` was tested, and the Potency was inconclusive: 28.2 µM [inhibitor, partial curve]. With `CC(=O)Nc1c(C)nn(-c2ccccc2)c1N1CCC(C(=O)NCc2ccc(Cl)cc2)CC1` the Potency was “inactive”. With `Cc1cc(C)cc(N2CC(c3nc(-c4ccccc4C)no3)CC2=O)c1` (stereo unspecified) the Potency was “inactive”. For `CC(=O)Nc1ccc(/C(C)=N\NC(=O)c2ccc(-c3ccccc3)cc2)cc1`, the Potency was inconclusive: 2 µM [inhibitor, full curve]. With `O=[N+]([O-])c1cccc(/C=N\N=C2c3ccccc3-c3ccccc32)c1O` the Potency was active: 5.01 µM. With `COC(=O)c1ccccc1Sc1ncnc2onc(C)c12` the Potency was inconclusive: 11.2 µM [inhibitor, partial curve]. With `Cc1cccc(C(=O)Nc2ccc(-c3nc4ccccc4s3)cc2Cl)c1` the Potency was inconclusive: 0.199 µM [inhibitor, full curve]. For `C=CCNC(=O)c1ccc(-c2cccc([N+](=O)[O-])c2)o1`, the Potency was inconclusive: 12.6 µM [inhibitor, partial curve, poor fit]. For `CC1CCN(c2ccc(/C=N/n3nnnc3N)cc2[N+](=O)[O-])CC1`, the Potency was inconclusive: 2.24 µM [inhibitor, full curve]. In the case of `OCC1(Cc2ccc(Cl)cc2)CCN(Cc2ccc(Oc3ncccn3)cc2)CC1`, the Potency is reported as “inactive”. For `Cc1cccc(C(=O)N2CCN=C2SCc2ccc([N+](=O)[O-])cc2)c1`, the Potency was inconclusive: 22.4 µM [inhibitor, single point]. In the case of `Fc1ccc(-c2cc(C(F)(F)F)nc(NCc3cccs3)n2)cc1`, the Potency is reported as “inactive”. With `CCc1nnc2n1N=C(c1ccc(-c3cc(Cl)ccc3Cl)o1)CS2` the Potency was inconclusive: 5.62 µM [inhibitor, partial curve]. For `CCOc1ccc(C(=O)NCC(C)C)cc1`, the Potency was “inactive”. In the case of `O=C(Nc1cc(F)ccc1F)C1CCN(c2nc3ccccc3n3cccc23)CC1`, the Potency is reported as inconclusive: 12.6 µM [inhibitor, partial curve]. For `COc1ccc(-n2c(SCC3CNC(=O)O3)nnc2-c2ccc(Cl)cc2)cc1` (stereo unspecified), the Potency was “inactive”. `CCn1c(=O)cc(SCC(=O)Nc2ccc3c(c2)OCCO3)c2ccccc21` was tested, and the Potency was inconclusive: 3.55 µM [inhibitor, full curve, poor fit]. In the case of `CC1(C)OC2OC(C(=O)N/N=C/c3cc(Br)ccc3O)C3OC(C)(C)OC3C2O1` (stereo unspecified), the Potency is reported as “inactive”. For `Cc1ccc(S(=O)(=O)CNC(=S)c2cccc(C)c2)cc1`, the Potency was inconclusive: 28.2 µM [inhibitor, partial curve]. `Cc1ccc(NC(=O)/C=C/c2ccc([N+](=O)[O-])s2)cc1` was tested, and the Potency was inconclusive: 1.58 µM [inhibitor, full curve]. With `CN1c2ccccc2C(O)=C(C(=S)Nc2ccc(F)c(Cl)c2)S1(=O)=O` the Potency was inconclusive: 15.8 µM [inhibitor, partial curve]. `Cc1sc2c(c1C)c(=O)n(CCc1ccccc1)c(=O)n2Cc1cccc(F)c1` was tested, and the Potency was inconclusive: 7.94 µM [inhibitor, single point]. With `Fc1ccc(-c2nnc(CSc3nnc4ccccn34)o2)cc1` the Potency was “inactive”. In the case of `O=C(Nc1ccccc1)Nc1ncc([N+](=O)[O-])s1`, the Potency is reported as active: 17.8 µM. In the case of `Nc1nc(-c2ccc3c(c2)CCC(=O)N3)cs1`, the Potency is reported as inconclusive: 15.8 µM [inhibitor, partial curve]. `O=C(NCc1ccccc1Br)c1ccc2nc(N3CCCCC3)sc2c1` was tested, and the Potency was inconclusive: 3.55 µM [inhibitor, full curve]. With `CCOc1ccc2nc(SCC(=O)Nc3cc4c(cc3C(C)=O)OCO4)[nH]c2c1` the Potency was inconclusive: 12.6 µM [inhibitor, partial curve]. For `COc1cc(CNc2ccc(N3CCN(C(C)=O)CC3)cc2)ccc1OCc1ccccc1`, the Potency was active: 3.98 µM. For `Cc1c(/C=N/NC(=O)c2ccc(Br)o2)cnn1C`, the Potency was inconclusive: 12.6 µM [inhibitor, partial curve, poor fit]. In the case of `Cc1ccc(Nc2c([N+](=O)[O-])cc(C(=O)N3CC(=O)Nc4ccccc43)cc2[N+](=O)[O-])c(C)c1`, the Potency is reported as inconclusive: 15.8 µM [inhibitor, partial curve].
